Assay results: the supplement of paper PMC3334620
Over roughly 33,000 sequences, “E-score (-0.5 to 0.5)” has its median near -0.054; the highest 2% begin near 0.39. The list shows a part of the results.

Biological target: Ylr278c (UniProt Q05854)
Assay: PBM E-score (8-mer binding enrichment) (E-score (-0.5 to 0.5)); higher = stronger / more preferred TF binding; most listed sequences are background and not binding sites
Settings: protein concentration: 200 nM; construct: GST-DNA-binding domain
Procedure, shortened: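 Bound GST-tagged yeast transcription factors, applied at about 100-200 nM to double-stranded universal all-10-mer Agilent arrays, were detected with fluorescent anti-GST. Scans were normalised with masliner. A modified Wilcoxon-Mann-Whitney statistic, the E-score, was assigned to each ungapped eight-base word pooled with its reverse complement by the Universal PBM Analysis Suite.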

Sequence	PBM E-score
GCGGGGAA	0.286
CTGCCAAG	-0.181
AGAAAAAG	0.0464
GAAGGCCC	0.0957
CCTTCCCG	0.0813
AGTCAGGA	-0.0883
AGGGAAGC	-0.0222
TCGAGAAA	-0.12
ACATAGCA	-0.106
CTATTTAA	0.0636
ACTGCTCG	0.02
TAGGAATA	-0.0367
ATCGCGGG	0.195
AGTCTGAG	-0.266
AGTTAAGG	-0.213
CTACGTGC	-0.146
ATTTTATG	0.051
CCAGTACG	-0.2
GCAGAAGA	-0.114
AGACATAA	-0.0545
CCGTATAG	-0.0383
GTCTTTAA	-0.167
AGTCCATC	-0.0633
TATCGGAA	0.413
GTCGCTTA	0.0285

Sequence	PBM E-score
GTGCCCTA	-0.195
AATCCCAG	-0.0473
CTAGCGAC	-0.198
CGTCGCGA	0.0518
ACCTGGCT	-0.229
AACATGAC	-0.0624
GAGTACGA	0.138
GCCATGGA	-0.167
TCGGCTCA	0.0638
GCAGTATA	0.0183
CGGGGGCC	0.285
CACTCTGC	-0.137
AGACTGAT	-0.169
GGTCGGTA	0.163
CGTCAAGC	-0.0344
GTCCGTGA	0.278
AATGTTCA	-0.0955
CAAGAAGG	-0.19
GTGGACCA	-0.121
GATTGCCC	0.069
CGTTTGTC	0.113
CTAACCAC	-0.272
ACTGCTTC	0.0437
AGGACTAG	-0.101
GATGCACC	-0.00911

Sequence	PBM E-score
ATCATTTC	0.103
ATACAACG	0.0135
AGTACAAG	-0.122
AACACCAA	-0.272
CGCGTCGA	0.134
ACAGCACG	0.0776
AAAGGCAC	0.00534
CTAAAACC	0.0306
CGGCCTAG	0.162
ACTACTCA	-0.0182
ACGTACGT	-0.472
ACCGAGCG	0.225
AGTACTGG	-0.23
ACATCGTA	-0.0993
ATTAAAGA	-0.0341
ATGTTTGC	-0.05
TCGTTCCA	-0.13
ACATACGA	-0.142
TCCGTGCA	0.374
GTGATGGA	-0.0959
AGGCCTGG	-0.235
ACACAGCG	0.0171
TAGTCCAA	-0.0998
CGTTCCAC	0.0259
CTTAATTA	-0.106

Sequence	PBM E-score
CAGACTAC	-0.166
CAACCTTA	-0.26
ATAGACTC	-0.22
CAAGCCAA	-0.0404
GAGTAGCA	0.125
ACACTCCC	0.00682
CATTTTCA	0.0235
CAGGAATA	0.0546
GGTCCGTA	0.304
CCAAGTTA	-0.172
TTCCGAAA	0.43
ATTTAATC	0.135
GGAATAAA	0.144
CGGACCTA	0.338
GGGTCCAA	0.11
ATCATAAA	-0.233
TAAGTACA	-0.225
AATGGCCT	0.197
GGATGGAA	-0.0283
ATCAGCAG	-0.0402
ACAGCGTC	0.0813
AGGAGCCT	-0.00023
CACTGGAG	-0.173
ACATCCGG	0.444
GCTTGGGA	-0.0872

Sequence	PBM E-score
CGGACGCC	0.366
AATTTTAA	-0.0414
GGTTCGCA	0.0401
CTGGCTTA	-0.273
CTGTACCC	0.119
GGTAAAGA	0.00946
AATGAGTA	0.103
GCGGTGCA	-0.159
ATAGCCAA	0.0646
ATTAAATG	0.0368
CGTCTGAA	-0.218
AAATGCCC	-0.0631
ACCTTCCG	0.274
ACGATTTG	-0.161
CTATTAGC	0.00228
AACTGGGT	-0.0916
ATTGAGCC	0.0318
CAGTTTGC	-0.0455
CATAAAGG	-0.0712
CCTCCTAA	-0.122
CAGTCTCC	0.182
GATAGACC	-0.0282
ATAAAAAC	-0.171
CACCAGGC	-0.192
TATAAGGA	-0.0387

Sequence	PBM E-score
TAAGTAGA	-0.107
CACCTAAG	-0.134
CCCTTCAG	-0.262
CACCGATA	0.194
ATCTCAGA	-0.186
AGTTATGG	-0.166
ATGATGCC	-0.175
ATTCACGC	-0.101
GACTACGA	-0.128
GAAGCCCA	-0.1
GATGTACC	-0.146
AACCGGGC	0.0679
CCGGTGCA	0.313
AGCTGTAA	-0.205
CCGGCAGG	0.279
CCTTTGAG	-0.231
CTCATATC	-0.0441
TATGGTCA	-0.274
CCCTGCGA	-0.217
CGTCGGCA	0.312
CGTCGCAA	0.0768
CGGCGTGA	0.237
CCTACCAA	-0.0918
AGGGTGCA	-0.0981
AACTTGAA	0.123

Sequence	PBM E-score
CTTTCTGA	-0.288
AAATCACC	0.243
GCACAGGA	-0.0572
GTCAAAGA	-0.0951
AATCCGCT	0.269
GGATATAC	0.192
TACGTAGA	-0.129
ACAGCTCA	-0.251
CATTCCGC	0.32
ATAGACAG	-0.162
CTCGGTTC	-0.132
AAGTATTC	-0.0556
AGAGTGCT	-0.203
CAGCTCAA	-0.0673
ATTTGGCC	-0.0203
AACGCCTT	0.0115
ATCATAAT	-0.0773
CGGCGTTA	0.405
CGCATTAG	-0.0756
CTTACGAC	-0.201
AAAGTCAG	-0.0825
AAAACAAG	-0.0822
CGTGCGAG	0.0659
AGCACGTA	-0.14
GCCCCTAA	-0.0023

Sequence	PBM E-score
CAGTGTGG	-0.192
CAAACTGC	0.00215
ACGCGTAC	-0.153
GATACGCC	0.171
AATTAACT	-0.132
AAGCGTAT	-0.0943
AAGCGCTA	0.0473
CAGCCTAC	0.00996
CCTCGCCG	0.117
CGCGGGCA	0.275
CTCTACGC	-0.25
ACGGGCGC	0.192
CCCCCATA	-0.183
GCCCGTTA	-0.0559
ATATGCTG	-0.194
CAAGATGC	0.194
GCAATACA	0.0519
CAAGTATC	-0.152
ACATCGCA	0.00734
CATCAGGC	-0.0591
GCTTCGTA	-0.396
ATAAAATC	0.0159
ACGAGGTG	-0.191
AGTCACTA	-0.118
ACAATGTA	-0.0454

Sequence	PBM E-score
TCACATAA	-0.22
GCCCGAGC	0.146
ATCGTTAC	-0.201
ATAGGTTG	-0.158
ACCACGCT	-0.15
GAGAGTAA	0.109
ATGAGGGA	-0.297
AGATGTTG	-0.0926
AGTTTAAA	0.123
AGGTCGGG	0.0897
GACGCTCA	-0.0492
GCAGAAGC	0.00991
ACAGTTAT	-0.0603
AGCTAGCA	-0.208
GACCCCAA	-0.0877
AATGCAGT	-0.115
CCATGTGC	-0.0642
AGCCAGGG	-0.238
ACTGGATG	-0.412
